Measurements from PubChem BioAssay AID262 (DTP/NCI, 2004).
Some entries of the source have several records that differ or are many. Only these are listed. There may be further records. Results that share an entry repeat one measurement across runs, samples, wells, individuals or studies.

System: LX-1 lung xenograft sc, nude mice, tumor weight
Assay: NCI In Vivo Anticancer Drug Screen. Data for tumor model Human Lung LX-1 Xenograft (subcutaneous) in NU/NU Swiss (nude) mice
Conditions: endpoint: optimum tumor weight change, higher = larger tumour
Protocol: The antitumor activity of compounds was measured in mice bearing transplantable tumors. Survival or tumor size were measured and the results are expressed as the measurement made in the treated group (T) divided by the measurement made in the vehicle treated control group (C). The tumor model used in this assay is Human Lung LX-1 Xenograft (subcutaneous) in NU/NU Swiss (nude) mice

CN(C)N=Nc1ccccc1
T/C (dose: 50.0 mg/kg/injection, schedule: Q04DX003 (ip), vehicle: Klucel (hydroxypropylcellulose) (HPC)): -21 % of control and 10 % of control

N[C@@H](Cc1ccc(N(CCCl)CCCl)cc1)C(=O)O
T/C (dose: 2.0 mg/kg/injection, schedule: Q04DX003 (ip), vehicle: suspension in saline): 112 % of control and 183 % of control

CN(CO)c1nc(N(C)CO)nc(N(C)CO)n1
T/C (dose: 25.0 mg/kg/injection, schedule: Q07DX005 (ip), vehicle: saline): 13 % of control and 62 % of control

O=C1c2c(O)ccc(O)c2C(=O)c2c(NCCNCCO)ccc(NCCNCCO)c21
T/C (dose: 0.63 mg/kg/injection, schedule: Q04DX003 (ip), vehicle: water): 55 % of control, 81 % of control, 107 % of control
T/C (dose: 1.25 mg/kg/injection, schedule: Q04DX003 (ip), vehicle: water): 77 % of control and 109 % of control

CC(C)CCCCCCCCCCCCC(=O)NCC(=O)NC1C(O)C(O)C(Nc2ncnc3nc[nH]c23)OC1C(O)CO (centres undefined)
T/C (dose: 6.0 mg/kg/injection, schedule: Q04DX003 (ip), vehicle: suspension in saline): 18 % of control and 77 % of control

CN(C)c1nc(N(C)C)nc(N(C)C)n1
T/C (dose: 60.0 mg/kg/injection, schedule: Q04DX005 (ip), vehicle: Klucel (hydroxypropylcellulose) (HPC)): 65 % of control and 102 % of control
T/C (dose: 120.0 mg/kg/injection, schedule: Q04DX005 (ip), vehicle: Klucel (hydroxypropylcellulose) (HPC)): 42 % of control and 81 % of control

CNC=O
T/C (dose: 1600.0 mg/kg/injection, schedule: Q04DX003 (ip), vehicle: saline): 2 % of control and 28 % of control
